# From patent publication US20240050583A1, “PROTEIN-DRUG CONJUGATE AND SITE-SPECIFIC CONJUGATING METHOD” (HARBOUR BIOMED (SHANGHAI) CO., LTD, priority 2020, published 2024)
# T1: HEK293/hCTLA4 cells highly expressing human CTLA4 (Homo sapiens, UniProt P16410)
# T1 construct: host or cells: HEK293/hCTLA4 (HEK293T-derived)
# T1 sequence (P16410 36-223): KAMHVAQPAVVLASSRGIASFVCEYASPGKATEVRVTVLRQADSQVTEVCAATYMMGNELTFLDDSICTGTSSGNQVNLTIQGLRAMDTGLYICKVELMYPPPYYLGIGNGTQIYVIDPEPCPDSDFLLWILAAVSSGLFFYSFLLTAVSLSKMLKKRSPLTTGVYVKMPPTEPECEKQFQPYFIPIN
# T2: NCI-H929 cells highly expressing human BCMA (Homo sapiens, UniProt Q02223)
# T2 construct: tumor cells NCI-H929 (ATCC, CRL-9068) highly expressing human BCMA; host or cells: NCI-H929
# T2 sequence (Q02223 1-184): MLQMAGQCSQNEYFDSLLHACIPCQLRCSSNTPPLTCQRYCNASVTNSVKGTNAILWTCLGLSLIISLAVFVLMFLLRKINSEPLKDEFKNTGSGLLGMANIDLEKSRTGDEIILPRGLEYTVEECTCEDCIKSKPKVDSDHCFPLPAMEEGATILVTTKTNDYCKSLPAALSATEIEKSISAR
# B1: PR000020: anti-CTLA4 fully human HCAb antibody, SEQ ID NO: 64 (antibody)
# heavy: SEVQLVETGGGLIQPGGSLRLSCAASGLNVSRHYLSWVRQAPGKGLEWVAVIYSGGGIEYVDSVKGRFTISRDNANNTLYLQMRSLRTEDSAVYYCARAIPRPHGSDIWGQGTMVTVSS[not shown - human IgG1 Fc]
# B2: PR000020-ADC (conjugate)
# heavy: SEVQLVETGGGLIQPGGSLRLSCAASGLNVSRHYLSWVRQAPGKGLEWVAVIYSGGGIEYVDSVKGRFTISRDNANNTLYLQMRSLRTEDSAVYYCARAIPRPHGSDIWGQGTMVTVSS[not shown - human IgG1 Fc]
# B3: PR006468-ADC (conjugate)
# heavy: EVQLVETGGGLIQPGGSLRLSCAASGFTVSDSYMTWVRQAPGKGLEWVSVIFSGGRTYYSDSVKGRFTISRDNAKNTLYLQMNSLRAEDTALYYCARRNYDDTRGTDVFDIWGQGTMVTVSSEPRVPITQNPCPPLKE[not shown - human IgG1 Fc with changes]
# B4: PR005744-ADC (conjugate)
# chain 1: QVQLVESGGGVVQPGRSLRLSCAATGFTFSSYGMYWVRQAPGKGLEWVAAIWNDGSNNYYADSVKGRFTISRDDSKNTLNLQMNSLRAEDTAMYYCARDRLPMASLRYFDWLGVMDAWGQGTSVTVSSASTKGPSVFPLAPSSKSTSGGTAALGCLVKDYFPEPVTVSWNSGALTSGVHTFPAVLQSSGLYSLSSVVTVPSSSLGTQTYICNVNHKPSNTKVDKKVEPKSC
# chain 2: [not shown - about 100 residues]FTFGQGTKLEIKRTVAAPSVFIFPPSDEQLKSGTASVVCLLNNFYPREAKVQWKVDNALQSGNSQESVTEQDSKDSTYSLSSTLTLSKADYEKHKVYACEVTHQGLSSPVTKSFNRGECEVQLVETGGGLIQPGGSLRLSCAASGFTVSDSYMTWVRQAPGKGLEWVSVIFSGGRTYYSDSVKGRFTISRDNAKNTLYLQMNSLRAEDTALYYCARRNYDDTRGTDVFDIWGQGTMVTVSS[not shown - human IgG1 Fc]
# B5: PR004433-PROTAC (conjugate)
# heavy: EVQLVETGGGLIQPGGSLRLSCAASGFTVSDSYMTWVRQAPGKGLEWVSVIFSGGRTYYSDSVKGRFTISRDNAKNTLYLQMNSLRAEDTALYYCARRNYDDTRGTDVFDIWGQGTMVTVSS[not shown - human IgG1 Fc]
# How the values were obtained:
# [1] = target: T1, HEK293/hCTLA4 cells highly expressing human CTLA4; experiment: FACS binding to cells highly expressing CTLA4; settings: flow cytometry FACS
# Description: The binding ability of the antibody molecules to an HEK293T cell strain HEK293/hCTLA4 (constructed by Harbour BioMed) highly expressing human CTLA4 and other cells was determined by flow cytometry FACS. Specifically, the HEK293/hCTLA4 cells were digested and resuspended in a DMEM medium, with the cell density adjusted to 1×10^6 cells/mL. HEK293 cells not expressing CTLA4 were used as a negative control. Thereafter, the cells were seeded in a 96-well V-bottom plate (Corning, #3894) at 100 μL/well and centrifuged at 4° C. for 5 min, and the supernatant was discarded. Then, the serially diluted antibody molecules were added to the 96-well plate at 100 μL/well, and the mixtures were well mixed. The antibody molecules could be serially diluted 3-fold from the highest final concentration of 500 nM to obtain a total of 12 concentrations. The cells were incubated at 4° C. for 1 h away from light.
# Then, the cells in each well were rinsed twice with 100 μL of pre-cooled FACS buffer (PBS buffer containing 0.5% BSA) and centrifuged at 500 g at 4° C. for 5 min, and then the supernatant was discarded. […] Fluorescence signal values were read using a BD FACS CANTOII flow cytometer, and the data were processed and analyzed using FlowJo v10 (FlowJo, LLC) software.
# NCI-H929 cells = experiment: Cytotoxic killing experiment (Example 9.5), NCI-H929; settings: 72 h, CellTiter-Glo; proteins up to 10 nM, mc-vc-PAB-MMAE up to 20 nM
# Description: The HEK293T-hBCMA, NCI-H929, HEK293T and SNU-16 cells were seeded in 96-well plates (Perkin Elmer, #6005225) respectively, with the following seeded cell number: 2500 cells/50 μL/well (HEK293T-hBCMA), 5000 cells/50 μL/well (NCI-H929), 2500 cells/50 μL/well (HEK293T), and 5000 cells/50 μL/well (SNU-16). Then, the plates were incubated overnight at 37° C. with 5% CO2. Then, a test sample serially pre-diluted was added at 50 μL/well. PR004433, PR004433-ADC and PR004432-ADC were diluted at a 3-fold concentration gradient from the highest final concentration of 10 nM, and mc-vc-PAB-MMAE was diluted at a 3-fold concentration gradient from the highest final concentration of 20 nM. In addition, a well without the test sample was set as a control well. Thereafter, the plates were incubated at 37° C. with 5% CO2 for 72 h, a CellTiter-Glo cell viability detection reagent (Promega, #G7573) was added, then the plates were incubated at room temperature for at least 10 min to obtain stable luminescence signals, and the luminescence values were detected using a microplate reader. The cell viability was calculated based on the luminescence values by the following formula:
# Cell viability (%)=(A/B)×100%
# In which, A=experimental well (target cells+test sample+medium); B=control well (target cells+medium)
# The data were processed and analyzed by plotting using GraphPad Prism 8 software, and binding curves of the antibodies to target cells, EC50 values and other parameters were obtained through four-parameter nonlinear fitting.
# In this example, the method described in 0 was used to study the specific cell killing activity of antigen-binding proteins PR006468 (including a mouse IgG2c hinge region), PR004433 (including a human IgG1 hinge region) and coupling products PR006468-ADC and PR004433-ADC thereof against tumor cells NCI-H929 (ATCC, CRL-9068) highly expressing human BCMA.
# In this example, the method described in 0 was used to study the specific cell killing activity of PR005744 and a coupling product PR005744-ADC thereof against tumor cells NCI-H929 (ATCC, CRL-9068) highly expressing human BCMA.
# [2] = target: T2, NCI-H929 cells highly expressing human BCMA; experiment: FACS binding to NCI-H929 cells; settings: flow cytometry FACS
# Description: Specifically, the cells were digested and resuspended in a DMEM complete medium, and the cell density was adjusted to 1×10^6 cells/mL. The cells were seeded in a 96-well V-bottom plate (Corning, #3894) at 100 μL/well, followed by the addition of test antibodies diluted in a 3-fold gradient at a concentration that was 2 times the final concentration, each at 100 μL/well. The cells were incubated at 4° C. for 1 h away from light. Thereafter, the cells in each well were rinsed twice with 100 μL of pre-cooled PBS, and centrifuged at 500 g at 4° C. for 5 min, and then the supernatant was discarded. Thereafter, a fluorescent secondary antibody (Alexa Fluor 488-conjugated AffiniPure Goat Anti-Human IgG, Fcγ Fragment Specific, Jackson ImmunoResearch Inc., #109-545-098, diluted in a 1:500 ratio) was added at 100 μL/well, and the plate was incubated at 4° C. for 30 min away from light. The cells in each well were then rinsed twice with 100 μL of pre-cooled PBS and centrifuged at 500 g at 4° C. for 5 min, and then the supernatant was discarded. Finally, the cells in each well were resuspended in 200 μL of pre-cooled PBS. Fluorescence signal values were read using a BD FACS CANTOII flow cytometer, and the data were processed and analyzed using FlowJo v10 (FlowJo, LLC) software.
# This example further utilized the method described in 0 to study the binding ability of the HCAb antibody PR004433 and a variant molecule thereof to NCI-H929 cells (ATCC, CRL-9068) highly expressing human BCMA.
# [3] = Molecular weight and coupling product components (DAR) by LC-MS; settings: non-reduced sample, lot CY20210203, before purification
# Description: In this example, liquid chromatography-mass spectrometry (LC-MS) was used to analyze the protein sample for molecular weight. Those skilled in the art can use different models of liquid chromatography (LC) and mass spectrometer (MS) to establish similar analytical methods according to the technical instructions and through experimental exploration. Only representative methods are listed in this example.
# In certain specific embodiments, determination of the molecular weight of a protein sample required desaccharification on the sample to remove modifications such as saccharide chains, for example, the sample was processed with glycosidase PNGase F (NEB, #P0705L) at 37° C. for at least 4 h. For example, in all examples of the present invention, when the molecular weight of protein samples was determined, unless otherwise emphasized, the protein samples to be tested were subjected to desaccharification by the glycosidase PNGase F.
# In certain specific embodiments, determination of the reduced molecular weight of a protein sample required reduction on the sample, for example, the sample was processed with […] dithiothreitol (DTT) at 37° C. for 10 min. For example, in all examples of the present invention, the samples after reduction were called reduced samples, and the samples without reduction were called non-reduced samples.
# Buffer A was 0.1% formic acid FA dissolved in water, and buffer B was 0.1% formic acid FA dissolved in acetonitrile. Injection: about 1 μg; flow rate: 0.3 mL/min; and operation temperature: 80° C. When reduced samples were tested, buffer A and buffer B were mixed within 12 min to form a linear gradient: using 10-60% B for the first 8 min and 80% B for the last 4 min. When non-reduced samples were tested, buffer A and buffer B were mixed within 9 min to form a linear gradient: using 15-60% B for the first 6 min and 80% B for the last 3 min.
# Buffer A was 0.1% formic acid FA dissolved in water, and buffer B was 0.1% formic acid FA dissolved in acetonitrile. Injection: about 10 μL; flow rate: 0.2-0.5 mL/min; and operation temperature: 80° C. The detection wavelength was 214 nm.
# In certain specific embodiments, the model of a mass spectrometer used was AB Sceix X500B, and the operating mode thereof was TOF-MS; when reduced samples were tested, a scanning range was 600-4000 m/z; when non-reduced samples were tested, a scanning range was 900-6000 m/z. Original mass spectrums were deconvolved by Sceix OS software to obtain molecular weight maps.
# In certain other specific embodiments, the model of a mass spectrometer used was Waters Xevo G2-XS Q-TOF, and a molecular weight scanning range thereof was 500-4000 Da. Original mass spectrums were deconvolved by Water MaxEnt or Agilent MassHunter BioConfirm software.
# In multiple specific embodiments of the present application, the combination set of different LC and MS conditions was used to achieve LC-MS combination for determining the molecular weight of protein samples. For example, in 0 and 0, the combination of conditions used was (chromatography column: ACQUITY UPLC Protein BEH C4; LC instrument: Waters Acquity UPLC; MS instrument: Waters Xevo G2-XS Q-TOF).
Molecule,binding activity to HEK293/hCTLA4 cells [1],cytotoxic killing against NCI-H929 cells (NCI-H929 cells),binding ability to NCI-H929 cells [2],other results
B1,strong specific binding activity,–,–,–
B2,strong specific binding activity,–,–,–
B3,–,effective and specific cytotoxic killing,–,–
B4,–,effective and specific cytotoxic killing,can specifically bind,–
B5,–,–,can specifically bind,Content of DAR = 2 component [3]: 66.4%; Content of DAR = 4 component [3]: 3.5%
